Assay results reported in the supplement of paper PMC8728848.
The other results are listed elsewhere or left out.

Legend:
Test in all cases: glycan array binding signal (z-score within array); higher = stronger binding
Conditions in all cases: glycan notation: IUPAC condensed, linker removed
[1] = biological target: Neu5Ac(a2-3)GalNAc(b1-4)GlcNAc
How it was run: (§1)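 Glycan array data were curated from 3228 arrays in the Consortium for Functional Glycomics database and kept only where the protein sequence was available. Glycan names were converted to IUPAC-condensed notation, and columns mapping to the same glycan were averaged. The binding signal is a within-array Z-score, averaged across arrays of the same protein sequence at different concentrations or buffers and across linkers. Negative Z-scores can be read as non-binding.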

[2] = biological target: Neu5Ac(a2-3)[GalNAc(b1-4)]Gal(b1-4)Glc
How it was run: as §1

[3] = biological target: Neu5Ac(a2-3)[GalNAc(b1-4)]Gal(b1-4)GlcNAc
How it was run: as §1

[4] = biological target: Neu5Ac(a2-3)[GalNAc(b1-4)]Gal(b1-4)GlcNAc(b1-3)GalNAc
How it was run: as §1

[5] = biological target: Neu5Ac(a2-3)[Neu5Ac(a2-6)]GalNAc
How it was run: as §1

Neu5Ac(a2-6)Gal = biological target: Neu5Ac(a2-6)Gal
How it was run: as §1

[6] = biological target: Neu5Ac(a2-6)Gal(b1-3)GlcNAc(b1-3)[Gal(b1-4)GlcNAc(b1-6)]Gal(b1-4)Glc
How it was run: as §1

Neu5Ac(a2-6)Gal(b1-4)Glc = biological target: Neu5Ac(a2-6)Gal(b1-4)Glc
How it was run: as §1

[7] = biological target: Neu5Ac(a2-6)Gal(b1-4)GlcNAc
How it was run: as §1

[8] = biological target: Neu5Ac(a2-6)Gal(b1-4)GlcNAc(b1-2)Man
How it was run: as §1

[9] = biological target: Neu5Ac(a2-6)Gal(b1-4)GlcNAc(b1-2)Man(a1-3)Man(b1-4)GlcNAc(b1-4)GlcNAc
How it was run: as §1

[10] = biological target: Neu5Ac(a2-6)Gal(b1-4)GlcNAc(b1-2)Man(a1-3)[Gal(b1-4)GlcNAc(b1-2)Man(a1-6)]Man(b1-4)GlcNAc(b1-4)GlcNAc
How it was run: as §1

[11] = biological target: Neu5Ac(a2-6)Gal(b1-4)GlcNAc(b1-2)Man(a1-3)[GlcNAc(b1-2)Man(a1-6)]Man(b1-4)GlcNAc(b1-4)GlcNAc
How it was run: as §1

[12] = biological target: Neu5Ac(a2-6)Gal(b1-4)GlcNAc(b1-2)Man(a1-3)[GlcNAc(b1-4)][Neu5Ac(a2-6)Gal(b1-4)GlcNAc(b1-2)Man(a1-6)]Man(b1-4)GlcNAc(b1-4)GlcNAc
How it was run: as §1

[13] = biological target: Neu5Ac(a2-6)Gal(b1-4)GlcNAc(b1-2)Man(a1-3)[Man(a1-6)]Man(b1-4)GlcNAc(b1-4)GlcNAc
How it was run: as §1

[14] = biological target: Neu5Ac(a2-6)Gal(b1-4)GlcNAc(b1-2)Man(a1-3)[Neu5Ac(a2-3)Gal(b1-4)GlcNAc(b1-2)Man(a1-6)]Man(b1-4)GlcNAc(b1-4)GlcNAc
How it was run: as §1

[15] = biological target: Neu5Ac(a2-6)Gal(b1-4)GlcNAc(b1-2)Man(a1-3)[Neu5Ac(a2-6)Gal(b1-4)GlcNAc(b1-2)Man(a1-6)]Man(b1-4)GlcNAc(b1-4)GlcNAc
How it was run: as §1

[16] = biological target: Neu5Ac(a2-6)Gal(b1-4)GlcNAc(b1-2)Man(a1-3)[Neu5Ac(a2-6)Gal(b1-4)GlcNAc(b1-2)Man(a1-6)]Man(b1-4)GlcNAc(b1-4)[Fuc(a1-6)]GlcNAc
How it was run: as §1

[17] = biological target: Neu5Ac(a2-6)Gal(b1-4)GlcNAc(b1-2)Man(a1-6)Man(b1-4)GlcNAc(b1-4)GlcNAc
How it was run: as §1

[18] = biological target: Neu5Ac(a2-6)Gal(b1-4)GlcNAc(b1-2)Man(a1-6)[Gal(b1-4)GlcNAc(b1-2)Man(a1-3)]Man(b1-4)GlcNAc(b1-4)GlcNAc
How it was run: as §1

[19] = biological target: Neu5Ac(a2-6)Gal(b1-4)GlcNAc(b1-2)Man(a1-6)[GlcNAc(b1-2)Man(a1-3)]Man(b1-4)GlcNAc(b1-4)GlcNAc
How it was run: as §1

[20] = biological target: Neu5Ac(a2-6)Gal(b1-4)GlcNAc(b1-2)Man(a1-6)[Man(a1-3)]Man(b1-4)GlcNAc(b1-4)GlcNAc
How it was run: as §1

[21] = biological target: Neu5Ac(a2-6)Gal(b1-4)GlcNAc(b1-2)[Neu5Ac(a2-6)Gal(b1-4)GlcNAc(b1-4)]Man(a1-3)[GlcNAc(b1-4)][Neu5Ac(a2-6)Gal(b1-4)GlcNAc(b1-2)[Neu5Ac(a2-6)Gal(b1-4)GlcNAc(b1-6)]Man(a1-6)]Man(b1-4)GlcNAc(b1-4)GlcNAc
How it was run: as §1

[22] = biological target: Neu5Ac(a2-6)Gal(b1-4)GlcNAc(b1-2)[Neu5Ac(a2-6)Gal(b1-4)GlcNAc(b1-4)]Man(a1-3)[GlcNAc(b1-4)][Neu5Ac(a2-6)Gal(b1-4)GlcNAc(b1-4)Man(a1-6)]Man(b1-4)GlcNAc(b1-4)GlcNAc
How it was run: as §1

[23] = biological target: Neu5Ac(a2-6)Gal(b1-4)GlcNAc(b1-2)[Neu5Ac(a2-6)Gal(b1-4)GlcNAc(b1-6)]Man(a1-6)[Neu5Ac(a2-6)Gal(b1-4)GlcNAc(b1-2)Man(a1-3)][GlcNAc(b1-4)]Man(b1-4)GlcNAc(b1-4)GlcNAc
How it was run: as §1

[24] = biological target: Neu5Ac(a2-6)Gal(b1-4)GlcNAc(b1-3)Gal(b1-3)GlcNAc
How it was run: as §1

[25] = biological target: Neu5Ac(a2-6)Gal(b1-4)GlcNAc(b1-3)Gal(b1-4)GlcNAc
How it was run: as §1

[26] = biological target: Neu5Ac(a2-6)Gal(b1-4)GlcNAc(b1-3)Gal(b1-4)GlcNAc(b1-2)Man(a1-3)[Neu5Ac(a2-6)Gal(b1-4)GlcNAc(b1-3)Gal(b1-4)GlcNAc(b1-2)Man(a1-6)]GalNAc
How it was run: as §1

[27] = biological target: Neu5Ac(a2-6)Gal(b1-4)GlcNAc(b1-3)Gal(b1-4)GlcNAc(b1-3)Gal(b1-4)GlcNAc
How it was run: as §1

[28] = biological target: Neu5Ac(a2-6)Gal(b1-4)GlcNAc(b1-3)Gal(b1-4)GlcNAc(b1-3)Gal(b1-4)GlcNAc(b1-2)Man(a1-3)[Neu5Ac(a2-6)Gal(b1-4)GlcNAc(b1-3)Gal(b1-4)GlcNAc(b1-3)Gal(b1-4)GlcNAc(b1-2)Man(a1-6)]GalNAc
How it was run: as §1

[29] = biological target: Neu5Ac(a2-6)Gal(b1-4)GlcNAc(b1-3)Gal(b1-4)GlcNAc(b1-3)GalNAc
How it was run: as §1

[30] = biological target: Neu5Ac(a2-6)Gal(b1-4)GlcNAc(b1-3)Gal(b1-4)GlcNAc(b1-3)[Neu5Ac(a2-6)Gal(b1-4)GlcNAc(b1-3)Gal(b1-4)GlcNAc(b1-6)]GalNAc
How it was run: as §1

[31] = biological target: Neu5Ac(a2-6)Gal(b1-4)GlcNAc(b1-3)Gal(b1-4)GlcNAc(b1-6)[Gal(b1-3)]GalNAc
How it was run: as §1

[32] = biological target: Neu5Ac(a2-6)Gal(b1-4)GlcNAc(b1-3)Gal(b1-4)[Fuc(a1-3)]GlcNAc(b1-3)Gal(b1-4)[Fuc(a1-3)]GlcNAc
How it was run: as §1

[33] = biological target: Neu5Ac(a2-6)Gal(b1-4)GlcNAc(b1-3)GalNAc
How it was run: as §1

[34] = biological target: Neu5Ac(a2-6)Gal(b1-4)GlcNAc(b1-3)[Neu5Ac(a2-6)Gal(b1-4)GlcNAc(b1-6)]GalNAc
How it was run: as §1

[35] = biological target: Neu5Ac(a2-6)Gal(b1-4)GlcNAc(b1-6)GalNAc
How it was run: as §1

[36] = biological target: Neu5Ac(a2-6)Gal(b1-4)GlcNAc(b1-6)[Gal(b1-3)GlcNAc(b1-3)]Gal(b1-4)Glc
How it was run: as §1

B1: rCnSL-proA (Clitocybe nebularis) (protein)
chain: AAFFSLVVLLALLPFGIHASALPSTELTPRVNPNLPGPNDVFVGFRGTNNIVGAIYEKDGIKDTPLNNGADAEMGPGSYITDGLFTARIFASGSAGNNPGTTATVCKIYASGVQWRGAPKGYIPVAYFGNGPTAEQRRQTYLRTLGLPGTAIRFGNLNTNPGQGPTAPRQMVVPPGPLRSLLKASCFPAADTRLPQTLHYFEKRVDWNIITAADSQTWGH
glycan array binding signal (z-score) [1]: 0.043
glycan array binding signal (z-score) [2]: -0.325
glycan array binding signal (z-score) [3]: -0.735
glycan array binding signal (z-score) [4]: 0.606
glycan array binding signal (z-score) [5]: -0.143
glycan array binding signal (z-score) (Neu5Ac(a2-6)Gal): -0.538
glycan array binding signal (z-score) [6]: 0.024
glycan array binding signal (z-score) (Neu5Ac(a2-6)Gal(b1-4)Glc): -0.233
glycan array binding signal (z-score) [7]: -0.253
glycan array binding signal (z-score) [8]: -0.168
glycan array binding signal (z-score) [9]: -0.302
glycan array binding signal (z-score) [10]: -0.272
glycan array binding signal (z-score) [11]: -0.465
glycan array binding signal (z-score) [12]: -0.331
glycan array binding signal (z-score) [13]: -0.337
glycan array binding signal (z-score) [14]: -0.338
glycan array binding signal (z-score) [15]: -0.049
glycan array binding signal (z-score) [16]: -0.204
glycan array binding signal (z-score) [17]: -0.112
glycan array binding signal (z-score) [18]: -0.373
glycan array binding signal (z-score) [19]: -0.382
glycan array binding signal (z-score) [20]: -0.629
glycan array binding signal (z-score) [21]: -0.213
glycan array binding signal (z-score) [22]: -0.068
glycan array binding signal (z-score) [23]: -0.276
glycan array binding signal (z-score) [24]: 0.274
glycan array binding signal (z-score) [25]: -0.269
glycan array binding signal (z-score) [26]: -0.02
glycan array binding signal (z-score) [27]: 0.06
glycan array binding signal (z-score) [28]: 3.19
glycan array binding signal (z-score) [29]: -0.18
glycan array binding signal (z-score) [30]: 2.34
glycan array binding signal (z-score) [31]: -0.716
glycan array binding signal (z-score) [32]: -0.502
glycan array binding signal (z-score) [33]: 0.044
glycan array binding signal (z-score) [34]: -0.191
glycan array binding signal (z-score) [35]: 0.067
glycan array binding signal (z-score) [36]: -0.348
